Reference: the supplement of paper PMC11417369
± gives the standard deviation of the averaged measurements. This is one part of the list.

Tested on: PfAP2-LT AP2 domain (GST-tagged)
Experiment: gcPBM binding intensity (ln(normalized median fluorescence intensity)); higher = stronger DNA binding
How it was run: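 Binding intensity values are the highest Masliner-normalised natural-log median intensity among replicate spots of either probe orientation. The binding step lasted 1 h in 1× PBS with 1% milk, 0.2 mg/ml BSA, 0.5% salmon testes DNA and 0.03% Triton X-100, using GST-tagged P. falciparum DNA-binding domains expressed in E. coli on an Agilent 4 × 180k array of primer-extended double-stranded 36-bp intergenic genomic probes plus negative controls. Alexa488 anti-GST antibody and a 488 nm scan detected bound protein.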

Row | Sequence | gcPBM binding intensity (ln)
1 | AAAATAAATAAATATACACACCATATATATATTTTT [CACACA_site5573] | 8.89 ± 0.4
2 | TACAAAAAAAGATGATGTACAATGAAAAATAAGAAA [XGTACX_site5840] | 8.82 ± 0.57
3 | ATAAATAATTGTAGTTGTACATGATATTTTTATTAC [XGTACX_site550] | 8.75 ± 0.27
4 | AAAAAAAAAAAAAACACACACACAAATACAAATACA [CACACA_site414] | 9.9 ± 0.36
5 | AAATGGACCTAATTATCACACATTATACTCGTTTTC [CACACA_site5996] | 9.03 ± 0.41
6 | TATAAGTTTATATATACACACATATATATATATATA [CACACA_site3274] | 9.65 ± 0.34
7 | TTGTTAAAATTATTAAGTTAAATATCGATTTGTAAA [XGTACX_negctrl_site429] | 8.19 ± 0.45
8 | ATATTTATAACTTGTACACACAAATATGCATATATA [CACACA_site7583] | 9.18 ± 0.39
9 | TTATTATTCCCTCATTTTGTTACCATTATTTCAATT [CACACA_negctrl_site1023] | 8.88 ± 0.54
10 | TTAAAATTTTTTTTTTTTTTTTTTTTTTTTTTTTTC [CACACA_negctrl_site957] | 8.13 ± 0.61
11 | AAAATAAAAAGAAAAAATAAAAAGAAAAAATAAAAA [CACACA_negctrl_site120] | 8.46 ± 0.61
12 | AGTGAAAAAAAATTTACACACATAAAATATAAACGA [CACACA_site3724] | 9.21 ± 0.55
13 | AAATAAAATACATATAAACACACATATAAACCAACA [CACACA_site8789] | 9.44 ± 0.3
14 | AAAAAAAATATAAGTGGTACTCACATAAAGACATAT [XGTACX_site3709] | 9.07 ± 0.41
15 | TAATACTTTTAATCTACACACGCTGAGACATGCTTT [CACACA_site1484] | 9.06 ± 0.49
16 | TTTTTAGTTCATTAAACACACAAAAAAAAAAATAAA [CACACA_site6035] | 8.45 ± 0.41
17 | TTTTTTATTCTTTTTGCACACAGGAAATTTACAGAT [CACACA_site1090] | 9.21 ± 0.42
18 | TTATATAATCCTTTCAAACACACAAAATATAATTAA [CACACA_site1830] | 8.62 ± 0.42
19 | TGCCCTTTGGTTATAACACACATGCACACGTAAATA [CACACA_site7750] | 9.4 ± 0.23

Row | Sequence | gcPBM binding intensity (ln)
20 | AATTAACCGTGACACACACACATATAAATATAAATA [CACACA_site7790] | 9.54 ± 0.56
21 | GGGAATATATAAGATACACACACAAATTAAATATAA [CACACA_site8898] | 9.44 ± 0.39
22 | TATATATATATATATACACACACACCCACCAAAGCG [CACACA_site7904] | 10.02 ± 0.021
23 | ATGAAATATGCACAGTGTACTTTTATGAGGAACATA [XGTACX_site426] | 8.84 ± 0.44
24 | TTTTTAATACAAAAAAAATAATATGTTATATTTCAA [CACACA_negctrl_site35] | 8.18 ± 0.45
25 | TACAATTTATGACACACACACAATAATACCTATATA [CACACA_site6704] | 9.61 ± 0.27
26 | AAAAAAAAAAAACACACACACACACTAGTACATACA [CACACA_site4551] | 10.2 ± 0.3
27 | TATATATATATATGTGCACACATAAAGATATTATTT [CACACA_site3734] | 9.77 ± 0.3
28 | AATAAAATAATAGGCACACATATATATATATATTAT [CACACA_site273] | 9.2 ± 0.37
29 | ATATATCTACATATATGTACATATATGTATATGTAT [XGTACX_site5432] | 9.18 ± 0.3
30 | ATATCCTACTTCTAGTGTACATATATGGACTGATGA [XGTACX_site3683] | 8.88 ± 0.46
31 | TTTTGTAAAAGGTATATATATATATATATATATATA [GTGCAC_negctrl_site734] | 9.79 ± 0.22
32 | AATAAAAAAATAAAAAAAAAAAAAAATAAAAAAAAA [GTGCAC_negctrl_site12] | 8.36 ± 0.45
33 | CGTATTTTAATATTTACACACTTATTTTTTATATAA [CACACA_site125] | 8.78 ± 0.52
34 | TATAGCATATTTCACACACACATAATGAATATTATA [CACACA_site3545] | 9.4 ± 0.28
35 | TTTATATAGAAAAATTGTACGAATTACTTTTTTATA [XGTACX_site6843] | 8.36 ± 0.41
36 | TATAGTAAAATTAGGGTGCTTTTGTAACAAAAAAAA | 8.61 ± 0.52
37 | TTATTTTCTTTCTATGCACACGCACGTATTTGCCCA [CACACA_site9104] | 9.14 ± 0.49
38 | TGCTTCATAAATAAAACATGCAATATAGAAATTAAA [TGCATGCA_site690] | 8.39 ± 0.41

Row | Sequence | gcPBM binding intensity (ln)
39 | AAATATATATACCACACACACATACCTCTATTTGTA [CACACA_site1854] | 9.7 ± 0.18
40 | AGAGTAGGAAATGGAAAAATAAAATAAATAAATAAA [XGTACX_negctrl_site69] | 8.67 ± 0.68
41 | AATCCTTTAAAACACACACACAAAAAAAAAAAAAAA [CACACA_site642] | 9.28 ± 0.52
42 | TTTAACGTTGAATATACACACATATATTTATTTATA [CACACA_site7695] | 8.82 ± 0.42
43 | AAAATGTACTTTTTCTAAAGAGTAATGATGCTTGAT [CACACA_negctrl_site1124] | 8.55 ± 0.38
44 | GGGAGGATAGTTCACAGTACCCAGGAAATCTACGGA [XGTACX_site2553] | 8.81 ± 0.6
45 | GGTTCATAATATGGTTGTACATAAATATATATATAT [XGTACX_site7583] | 9.04 ± 0.3
46 | ATATATATGTATAATCGTACAGTTAACGTATTCTTA [XGTACX_site5649] | 8.98 ± 0.34
47 | AAACAGATAAATAAAAGTACACATTAAAAGGTAGCA [XGTACX_site4150] | 9.04 ± 0.64
48 | GGATTTTAATGAACACGTACATAAAATTAAATAAAT [XGTACX_site7023] | 8.73 ± 0.45
49 | TAATTAATTTCTTTACGTACATAATTAATATATATA [XGTACX_site7372] | 8.53 ± 0.43
50 | CTTTGCCTTAAAAAGGAACACACATGCTTTTTTTAG [CACACA_site8219] | 8.72 ± 0.42
51 | TACTATATCATTTATTGTACAATATTTCTTCAGAAA [XGTACX_site1008] | 8.62 ± 0.45
52 | TATAAAAGACTAAATATTATAGAAATATAAATATAA [TGCATGCA_negctrl_site237] | 8.44 ± 0.59
53 | TAACAAGGTTTATATGCATGCAAACATAACCAAAAA [TGCATGCA_site824] | 8.85 ± 0.39
54 | AATGGGTAAACATACACACACACATCTATATTTATA [CACACA_site7025] | 9.78 ± 0.4
55 | CATGAGGTATAAAAGGTGCAAATTAATGAGAACATT | 9.04 ± 0.57
56 | TTATATCAAGGGAATGCATGCATATCGTTTTGTATT [TGCATGCA_site327] | 9.05 ± 0.3
